How the values were obtained:
hPD-L1 = hPD-L1 (Homo sapiens, UniProt Q9NZQ7); experiment: Biacore kinetic analysis of primary Z variants, hPD-L1; type: binding; details: His6-tagged Z variants over immobilized hPD-L1; 1:1 model
Description: (§1) Biacore kinetic and specificity analysis: Kinetic constants (ka and kd) and affinities (KD) for hPD-L1 were determined for 14 Hiss-tagged Z variants using a Biacore 2000 instrument (GE Healthcare). Some of the Z variants were also tested for binding against the sequence-related proteins hPD-L2, hB7-H3, hB7-H4 and mPD-L1 (mouse PD-L1 Fc Chimera, R&D Systems, cat. no. 1019-B7).
hPD-L1, hPD-L2, hB7-H3, hB7-H4 and mPD-L1 were immobilized in separate flow cells on the carboxylated dextran layer of different CM5 chip surfaces (GE Healthcare, cat. no. BR100012). The immobilization was performed using amine coupling chemistry according to the manufacturer's protocol and using HBS-EP as running buffer (0.01 M HEPES pH 7.4, 0.15 M NaCl, 3 mM EDTA, 0.005% v/v Surfactant P20, GE Healthcare, cat. no. BR100188). […] One flow cell surface on each chip was activated and deactivated for use as blank during analyte injections. In the kinetic experiment, HBS-EP was used as running buffer and the flow rate was 50 μl/min. The analytes, i.e. the Z variants, were each diluted in HBS-EP buffer within a concentration range of 1000 to 0.01 nM and injected for 5 min, followed by dissociation in running buffer for 15-25 min. After dissociation, the surfaces were regenerated with one or two injections of 0.1% SDS. Kinetic constants were calculated from the sensorgrams using the Langmuir 1:1 model of BiaEvaluation software 4.1 (GE Healthcare).

hPD-L1 binding to hPD-1 = molecular target: T1, hPD-L1 binding to hPD-1 (Homo sapiens, UniProt Q9NZQ7); experiment: AlphaLISA blocking assay (Example 3); details: His6-tagged Z variants 250 nM to 12 pM; 10 nM biotinylated hPD-L1; read-out: IC50 (M), inhibiting binding of PD-L1 to PD-1
T1 construct: 1086-PD-050 (hPD-1)
Description: AlphaLISA blocking assay: The potential of Z variants to inhibit binding of PD-L1 to PD-1 was analyzed by AlphaLISA and recordings in an EnSpire multiplate reader 2300 (Perkin Elmer). hPD-1 (human PD-1 Fc-chimera; R&D Systems, cat. no. 1086-PD-050) was immobilized on AlphaLISA Acceptor beads (Perkin Elmer, cat. no. 6772002) according to the manufacturer's recommendations. Stepwise serial dilutions 1:3 of Hiss-tagged Z variants to final concentrations of 250 nM to 12 pM were made in a 384 plate (Perkin Elmer, cat. no. 6005350) and incubated for 1 h with 10 nM biotinylated hPD-L1 in AlphaLISA buffer (Perkin Elmer, cat. no. AL000F). hPD-1-coated Acceptor beads were added to a final concentration of 10 μg/ml and incubated for 1 h. Finally, streptavidin coated Donor beads (Perkin Elmer, cat. no. 6772002) were added to a final concentration of 40 μg/ml and incubated for 30 min. All incubations were performed at RT in the dark. The plate was analyzed in the EnSpire instrument and the IC50 values were calculated using GraphPad Prism 5.

[1] = tested on: PD-L1 expressing THP-1 cells (IFNγ stimulated); experiment: Cell binding analysis by FACS, THP-1 cells; type: cell-based; details: IFNγ stimulated THP-1 cells; 10 μg/ml His6-tagged Z variant (antibody 1 μg/ml); normalized against Z13091
Description: Cell binding analysis by FACS: The potential of Z variants to bind PD-L1 expressing cells was investigated using Fluorescence Activated Cell Sorting (FACS). THP-1 cells, cultivated in RPMI (Lonza, cat. no. BE12-702F) containing 10% FBS were stimulated with 10 ng/ml IFNg (R&D Systems, cat. no. 285-IF-100) overnight which results in up-regulation of PD-L1. 150,000 stimulated and unstimulated cells were pipetted per well of a v-bottomed 96 well plate (Nunc, cat. no. 277143) and the cells in the plate were subsequently pelleted at 400 g for 3 min at RT. The supernatants were removed and the cells were resuspended in 100 μl PBS plus 2.5% FBS (staining buffer) containing 10 μg/ml of the different His-tagged Z variants. […] Cells incubated with buffer alone were used as negative controls. The cells were incubated for 1 h at 8° C. in the dark, washed twice with 100 μl staining buffer and resuspended in 100 μl of staining buffer containing a goat anti-Z antibody (produced in house) at a concentration of 5 μg/ml. Cells stained with the positive control were treated with buffer only. The cells were incubated for 1 h at 8° C. in the dark, washed twice with 100 μl staining buffer and resuspended in 100 μl of staining buffer containing an Alexa Fluor 647 chicken anti-goat IgG antibody (Life technologies, cat. no. A21469) or an Alexa Fluor 647 goat anti-mouse IgG antibody (Life technologies cat. no. A21236). The cells were once again incubated for 1 h at 8° C. in the dark, washed twice with 100 μl staining buffer and resuspended in 200 μl of staining buffer. Data from 10,000 cells were obtained using a FACS Calibur ([…]) and the data was analyzed using Flowing software 2.5.0 (Turku University). Mean fluorescence intensity (MFI) was used as a read out of binding capacity.

hB7-H4 = molecular target: T2, hB7-H4 (Homo sapiens, UniProt Q7Z7D3); experiment: Biacore specificity analysis of primary Z variants, hB7-H4; type: binding
T2 construct: purchased R&D Systems 6576-B7-50
T2 sequence (Q7Z7D3 25-282): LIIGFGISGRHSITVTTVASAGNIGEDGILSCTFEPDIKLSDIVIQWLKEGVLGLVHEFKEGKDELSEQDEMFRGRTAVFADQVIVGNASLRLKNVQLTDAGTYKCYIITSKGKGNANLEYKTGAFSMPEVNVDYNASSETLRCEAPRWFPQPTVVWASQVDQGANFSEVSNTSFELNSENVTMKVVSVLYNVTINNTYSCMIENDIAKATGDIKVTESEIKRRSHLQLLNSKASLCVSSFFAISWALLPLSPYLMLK
Description: as §1
hPD-L1, hPD-L2, hB7-H3, hB7-H4 and mPD-L1 were immobilized in separate flow cells on the carboxylated dextran layer of different CM5 chip surfaces (GE Healthcare, cat. no. BR100012). The immobilization was performed using amine coupling chemistry according to the manufacturer's protocol and using HBS-EP as running buffer (0.01 M HEPES pH 7.4, 0.15 M NaCl, 3 mM EDTA, 0.005% v/v Surfactant P20, GE Healthcare, cat. no. BR100188). The ligand immobilization levels on the surfaces were 468-894 RU for hPD-L1, 537-742 RU for hPD-L2, 383 RU for hB7-H3, 538-659 RU for hB7-H4 and 482 RU for mPD-L1. One flow cell surface on each chip was activated and deactivated for use as blank during analyte injections. In the kinetic experiment, HBS-EP was used as running buffer and the flow rate was 50 μl/min. The analytes, i.e. the Z variants, were each diluted in HBS-EP buffer within a concentration range of 1000 to 0.01 nM and injected for 5 min, followed by dissociation in running buffer for 15-25 min. After dissociation, the surfaces were regenerated with one or two injections of 0.1% SDS. Kinetic constants were calculated from the sensorgrams using the Langmuir 1:1 model of BiaEvaluation software 4.1 (GE Healthcare).

Chain of hPD-L1 (Q9NZQ7 19-290): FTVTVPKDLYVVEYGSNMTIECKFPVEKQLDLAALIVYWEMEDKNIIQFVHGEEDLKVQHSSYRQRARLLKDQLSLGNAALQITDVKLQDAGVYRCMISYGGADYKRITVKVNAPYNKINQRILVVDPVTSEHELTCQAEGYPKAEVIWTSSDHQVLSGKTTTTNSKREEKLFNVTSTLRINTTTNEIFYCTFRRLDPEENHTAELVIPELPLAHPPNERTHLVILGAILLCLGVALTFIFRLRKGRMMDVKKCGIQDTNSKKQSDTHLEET
T1 sequence (Q9NZQ7 19-239 limits assumed): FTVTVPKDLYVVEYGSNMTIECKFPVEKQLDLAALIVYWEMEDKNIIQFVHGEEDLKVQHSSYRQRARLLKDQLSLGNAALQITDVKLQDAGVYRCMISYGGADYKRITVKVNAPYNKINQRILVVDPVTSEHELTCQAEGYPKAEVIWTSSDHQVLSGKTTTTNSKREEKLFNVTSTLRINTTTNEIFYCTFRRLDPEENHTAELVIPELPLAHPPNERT

Substance	Kd (hPD-L1) [nM]	ka (hPD-L1) [M⁻¹ s⁻¹]	kd (hPD-L1) [s⁻¹]	IC50 (hPD-L1 binding to hPD-1) [M]	MFI (normalized) [1]	SPR response against B7-H4 (hB7-H4; 1000 nM Z variant injected)	Kd (hB7-H4; Biacore, immobilized hB7-H4, response seen at 1000 nM Z variant) [nM]
Z13080: primary PD-L1 binding Z variant (VDAKYAKERNSAAEEILHLPNLTMQQLWAFIWKLDDDPSQSSELLSEAKKLNDSQAPK; Engineered PD-L1 binding polypeptide)	6.6	1.4e+06	0.0092	2.7e-09	1.06		
Z13088: primary PD-L1 binding Z variant (VDAKYAKERNNAATEILRLPNLTAGQTWAFIWKLDDDPSQSSELLSEAKKLNDSQAPK; Engineered PD-L1 binding polypeptide)		1.4e+06	0.0037	8.8e-10	1.00		
Z13120: primary PD-L1 binding Z variant (VDAKYAKERNRAANEILQLPNLTKGQVWAFIWKLDDDPSQSSELLSEAKKLNDSQAPK; Engineered PD-L1 binding polypeptide)	6	2e+06	0.012	4.2e-09	0.71		
Z13147: primary PD-L1 binding Z variant (VDAKYAKERNRAAYEILQLPNLTHQQTWAFIWKLDDDPSQSSELLSEAKKLNDSQAPK; Engineered PD-L1 binding polypeptide)	1.6	1e+06	0.0017	5.6e-09	0.56		
Z13154: primary PD-L1 binding Z variant (VDAKYAKERNDAAYEILQLPNLTKRQVWAFIWKLDDDPSQSSELLSEAKKLNDSQAPK; Engineered PD-L1 binding polypeptide)		2.3e+06	0.0031	1.1e-09	1.04		
Z13158: primary PD-L1 binding Z variant (VDAKYAKERNDAAFEILQLPNLTNSQHWAFIWKLEDDPSQSSELLSEAKKLNDSQAPK; Engineered PD-L1 binding polypeptide)	8.3	670000	0.0056	2.4e-09	0.91		
Z13164: primary PD-L1 binding Z variant (VDAKYAKERNNAAQEILQLPNLTQLQRWAFIWKLDDDPSQSSELLSEAKKLNDSQAPK; Engineered PD-L1 binding polypeptide)	11	790000	0.0087	2.3e-09	0.81		
Z13165: primary PD-L1 binding Z variant (VDAKYAKERNYAAWEILRLPNLTASQYWAFIWKLDDDPSQSSELLSEAKKLNDSQAPK; Engineered PD-L1 binding polypeptide)	0.64	2e+06	0.0013	1.3e-09	1.24	some response	> 5000
Z13169: primary PD-L1 binding Z variant (VDAKYAKERNRAAQEILVLPNLTRKQQWAFIWKLDDDPSQSSELLSEAKKLNDSQAPK; Engineered PD-L1 binding polypeptide)	1.5	2.4e+06	0.0035	2.2e-09	0.91		
Z13198: primary PD-L1 binding Z variant (VDAKYAKERNAAAYEILTLPNLTNKQRWAFIWKLDDDPSQSSELLSEAKKLNDSQAPK; Engineered PD-L1 binding polypeptide)	0.97	5.8e+06	0.0056	1.3e-09	0.89		

From patent US11155596B2, “Polypeptide” (AFFIBODY AB, priority 2016, dated 2021)
